Experimental findings from patent US20240392271A1, “ENGINEERED CASX REPRESSOR SYSTEMS” (Scribe Therapeutics Inc., priority 2021, published 2024) are described below.

The test relates to endogenous B2M (beta-2-microglobulin) gene. The test can be described thus: B2M protein expression by HLA antibody flow cytometry, dXR constructs (Example 1, Table 14). The note with it: HEK293T cells, % of cells counted that were positive, biological triplicates. In kind it is cell-based, human. From the text:
dXR variant plasmids encoding constructs having the configuration of U6-gRNA+Ef1α-NLS-GGS-dCasX491-GGS-KRAB variant-NLS (dCasX491 refers to catalytically-dead CasX 491), were transiently transfected into HEK293T cells in an arrayed 96-well format. These constructs also contained a 2× FLAG sequence, as well as sequences encoding either a gRNA scaffold 174 (SEQ ID NO: 2238) having a spacer (spacer 7.37) targeting the endogenous B2M (beta-2-microglobulin) gene or a non-targeting control (spacer 0.0), which were all cloned upstream of a P2A-puromycin element on the plasmid. Four different effector domains were tested in addition to the “naked” dCasX491 (KRAB variant domains listed in Table 9; spacer sequences listed in Table 10; sequences of additional elements listed in Table 11). The corresponding protein sequences of the dXR molecule are listed in Table 13, and the generic configuration of the dXR molecule is illustrated in FIG. 38. […] Changes in gene expression were calculated by performing qPCR on the targeted gene and a housekeeping gene as reference. […] In addition to the wells used for RNA measurements, a separate set of wells was harvested seven days post-transfection and analyzed for B2M protein expression. Expression of B2M protein was determined by using an antibody that detects the B2M-dependent HLA protein complex on the cell surface. […]

B1: dXR4: dCasX491 fused to ZNF334 KRAB domain (SEQ ID NO: 340) (protein)
chain: KMKKFQIPVSFQDLTVNFTQEEWQQLDPAQRLLYRDVMLENYSNLVSVGYHVSKPDVIFKLEQGEEPWIVEEFSNQNYPD
As for B1, the “% cells expressing B2M protein” value (B2M-targeting spacer 7.37) came to 19.80% and the “% cells expressing B2M protein” value (non-targeting spacer 0.0) came out at 98.23%.
